Measurements from the CheMixHub viscosity set.
Values joined by “and” are separate entries in the source; they are usually repeats but may differ in a detail not shown here. Equal entries are not always repeated. ± gives the uncertainty stated by the source. Further values from the same series stand in other lists.

Experiment: xn = mol fraction of the nth substance listed

In the case of [Cl-].[Na+] + O, the viscosity (310.15 K, 101 kPa, x1 = 0.003) is reported as 0.743 mPa·s, the viscosity (310.15 K, 101 kPa, x1 = 0.009131) is reported as 0.7351 ± 0.0066 mPa·s and the viscosity (310.15 K, 101 kPa, x1 = 0.01839) is reported as 0.7756 ± 0.007 mPa·s. The viscosity (313.15 K, 100 kPa, x1 = 0.003569) was 0.679 ± 0.04 mPa·s, the viscosity (313.15 K, 100 kPa, x1 = 0.003647) was 0.681 ± 0.04 mPa·s and the viscosity (313.15 K, 100 kPa, x1 = 0.008855) was 0.703 ± 0.04 mPa·s. For the same compound, the viscosity (313.15 K, 100 kPa, x1 = 0.00887) was 0.703 ± 0.04 mPa·s, the viscosity (313.15 K, 100 kPa, x1 = 0.01261) was 0.714 ± 0.04 mPa·s and the viscosity (313.15 K, 100 kPa, x1 = 0.01772) was 0.735 ± 0.04 mPa·s. The viscosity (313.15 K, 100 kPa, x1 = 0.01818) was 0.75 ± 0.04 mPa·s, the viscosity (313.15 K, 101 kPa, x1 = 0.0003096) was 0.654 ± 0.0044 mPa·s and 0.6545 ± 0.0044 mPa·s and the viscosity (313.15 K, 101 kPa, x1 = 0.0009631) was 0.6568 ± 0.0044 mPa·s and 0.657 ± 0.0044 mPa·s. The viscosity (313.15 K, 101 kPa, x1 = 0.009969) was 0.6909 ± 0.0046 mPa·s and 0.6915 ± 0.0046 mPa·s, the viscosity (313.15 K, 101 kPa, x1 = 0.02011) was 0.732 ± 0.0049 mPa·s and 0.7328 ± 0.0049 mPa·s and the viscosity (313.15 K, 101 kPa, x1 = 0.04071) was 0.832 ± 0.0056 mPa·s and 0.8329 ± 0.0056 mPa·s. The viscosity (313.15 K, 101 kPa, x1 = 0.06533) was 0.9874 ± 0.0067 mPa·s and 0.9883 ± 0.0067 mPa·s, the viscosity (313.15 K, 101 kPa, x1 = 0.08944) was 1.192 ± 0.0082 mPa·s and 1.193 ± 0.0082 mPa·s and the viscosity (313.15 K, 101.3 kPa, x1 = 0.00112) was 0.661 ± 0.018 mPa·s. The viscosity (313.15 K, 101.3 kPa, x1 = 0.002247) was 0.67 ± 0.018 mPa·s, the viscosity (313.15 K, 101.3 kPa, x1 = 0.004484) was 0.6786 ± 0.018 mPa·s and the viscosity (313.15 K, 101.3 kPa, x1 = 0.008927) was 0.695 ± 0.018 mPa·s. For the same compound, the viscosity (313.15 K, 101.33 kPa, x1 = 0.000905) was 0.6616 ± 0.012 mPa·s, the viscosity (313.15 K, 101.33 kPa, x1 = 0.002718) was 0.6705 ± 0.012 mPa·s and the viscosity (313.15 K, 101.33 kPa, x1 = 0.00453) was 0.6792 ± 0.013 mPa·s. For the same compound, the viscosity (313.15 K, 101.33 kPa, x1 = 0.006344) was 0.6858 ± 0.013 mPa·s, the viscosity (313.15 K, 101.33 kPa, x1 = 0.008159) was 0.6959 ± 0.013 mPa·s and the viscosity (313.62 K, 100 kPa, x1 = 0.09185) was 1.204 ± 0.0085 mPa·s. It also gave a viscosity (313.83 K, 100 kPa, x1 = 0.09185) of 1.199 ± 0.011 mPa·s, a viscosity (313.86 K, 100 kPa, x1 = 0.09185) of 1.196 ± 0.011 mPa·s and a viscosity (318.15 K, 100 kPa, x1 = 0.003569) of 0.62 ± 0.04 mPa·s. It also gave a viscosity (318.15 K, 100 kPa, x1 = 0.003647) of 0.625 ± 0.04 mPa·s, a viscosity (318.15 K, 100 kPa, x1 = 0.00887) of 0.644 ± 0.04 mPa·s and a viscosity (318.15 K, 100 kPa, x1 = 0.01261) of 0.655 ± 0.04 mPa·s. It also gave a viscosity (318.15 K, 100 kPa, x1 = 0.01772) of 0.675 ± 0.04 mPa·s, a viscosity (318.15 K, 100 kPa, x1 = 0.01818) of 0.693 ± 0.04 mPa·s and a viscosity (318.15 K, 101 kPa, x1 = 0.0009) of 0.6022 ± 0.0042 mPa·s. The viscosity (318.15 K, 101 kPa, x1 = 0.002) was 0.6056 ± 0.0042 mPa·s, the viscosity (318.15 K, 101 kPa, x1 = 0.005) was 0.6189 ± 0.0043 mPa·s and the viscosity (323.15 K, 100 kPa, x1 = 0.003569) was 0.572 ± 0.04 mPa·s. It also gave a viscosity (323.15 K, 100 kPa, x1 = 0.003647) of 0.58 ± 0.04 mPa·s, a viscosity (323.15 K, 100 kPa, x1 = 0.008855) of 0.6 ± 0.04 mPa·s and a viscosity (323.15 K, 100 kPa, x1 = 0.00887) of 0.596 ± 0.04 mPa·s. The viscosity (323.15 K, 100 kPa, x1 = 0.01261) was 0.61 ± 0.04 mPa·s, the viscosity (323.15 K, 100 kPa, x1 = 0.01772) was 0.626 ± 0.04 mPa·s and the viscosity (323.15 K, 100 kPa, x1 = 0.01818) was 0.645 ± 0.04 mPa·s. For the same compound, the viscosity (323.15 K, 101 kPa, x1 = 0.0003096) was 0.5478 ± 0.0038 mPa·s and 0.5481 ± 0.0038 mPa·s, the viscosity (323.15 K, 101 kPa, x1 = 0.0009631) was 0.5502 ± 0.0038 mPa·s and 0.5504 ± 0.0038 mPa·s and the viscosity (323.15 K, 101 kPa, x1 = 0.003094) was 0.5575 ± 0.0038 mPa·s and 0.5579 ± 0.0038 mPa·s. For the same compound, the viscosity (323.15 K, 101 kPa, x1 = 0.009969) was 0.581 ± 0.004 mPa·s and 0.5813 ± 0.004 mPa·s, the viscosity (323.15 K, 101 kPa, x1 = 0.02011) was 0.6174 ± 0.0042 mPa·s and 0.6177 ± 0.0042 mPa·s and the viscosity (323.15 K, 101 kPa, x1 = 0.04071) was 0.7034 ± 0.0048 mPa·s and 0.704 ± 0.0048 mPa·s. For the same compound, the viscosity (323.15 K, 101 kPa, x1 = 0.06533) was 0.8338 ± 0.0057 mPa·s and 0.8345 ± 0.0057 mPa·s, the viscosity (323.15 K, 101 kPa, x1 = 0.08944) was 1.001 ± 0.007 mPa·s and 1.002 ± 0.007 mPa·s and the viscosity (323.15 K, 101.3 kPa, x1 = 0.00112) was 0.5516 ± 0.015 mPa·s. The viscosity (323.15 K, 101.3 kPa, x1 = 0.002247) was 0.5585 ± 0.015 mPa·s, the viscosity (323.15 K, 101.3 kPa, x1 = 0.004484) was 0.5678 ± 0.016 mPa·s and the viscosity (323.15 K, 101.3 kPa, x1 = 0.008927) was 0.587 ± 0.016 mPa·s. It also gave a viscosity (323.15 K, 101.3 kPa, x1 = 0.0177) of 0.62 ± 0.017 mPa·s, a viscosity (323.15 K, 101.33 kPa, x1 = 0.000905) of 0.5522 ± 0.011 mPa·s and a viscosity (323.15 K, 101.33 kPa, x1 = 0.002718) of 0.559 ± 0.011 mPa·s. For the same compound, the viscosity (323.15 K, 101.33 kPa, x1 = 0.00453) was 0.5682 ± 0.011 mPa·s, the viscosity (323.15 K, 101.33 kPa, x1 = 0.006344) was 0.5742 ± 0.011 mPa·s and the viscosity (323.15 K, 101.33 kPa, x1 = 0.008159) was 0.5877 ± 0.011 mPa·s.
